Source: the antibiotic and cytotoxicity screens of Wong et al. (2023)
The list shows a part of the results.

Experiments:
HSkMC = human skeletal muscle cells; assay: cytotoxicity call (relative viability < 0.9); conditions: 10 µM
HepG2 = assay: cytotoxicity call (relative viability < 0.9); conditions: 10 µM
S. aureus RN4220 = assay: growth inhibition call (relative growth <= 0.2); conditions: 50 µM

| SMILES | cytotoxicity call (HSkMC) | cytotoxicity call (HepG2) | growth inhibition call (S. aureus RN4220) |
| --- | --- | --- | --- |
| CC(C)NC(=O)Nc1ccc2c(c1)C(=O)N([C@@H](C)CO)C[C@@H](C)[C@H](CN(C)C(=O)C1CCCCC1)OCCCC[C@@H](C)O2 | inactive | inactive | inactive |
| C[C@H](CO)N1C[C@H](C)[C@H](CN(C)C(=O)Nc2ccc3c(c2)OCO3)OCCCC[C@H](C)Oc2ccc(NC(=O)c3ccccc3)cc2C1=O | inactive | inactive | inactive |
| C[C@@H]1CN([C@H](C)CO)C(=O)Cc2cc(NC(=O)Nc3ccc(C(F)(F)F)cc3)ccc2O[C@H]1CN(C)CC1CCCCC1 | active | active | inactive |
| COc1cc(C=CC(=O)C=C(O)C=Cc2ccc(O)c(OC)c2)ccc1O | inactive | active | inactive |
| C[C@H]1CN([C@@H](C)CO)C(=O)c2cc(-c3ccc(C(=O)N(C)C)cc3)cnc2O[C@H]1CN(C)C(=O)c1cccnc1 | inactive | inactive | inactive |
| COc1cccc(-c2cn(CC[C@@H]3CC[C@H](NC(=O)CN(C)C)[C@@H](CO)O3)nn2)c1 | inactive | inactive | inactive |
| C[C@H](CO)N1C[C@H](C)[C@@H](CN(C)C(=O)Nc2ccccc2)OCCCC[C@H](C)Oc2ccc(NS(=O)(=O)c3ccccc3)cc2C1=O | inactive | inactive | inactive |
| COc1ccc2c(c1)C(=O)C(=O)N2 | inactive | inactive | inactive |
| Cc1cc(O)c2c(c1)C(=O)c1cccc(O)c1C2=O | inactive | inactive | inactive |
| COC(=O)CNC(=O)c1ccccc1 | inactive | inactive | inactive |
| Cc1cccc(S(=O)(=O)N2C[C@@H](O)COC[C@@H]3O[C@H](CC(=O)NCc4ccc5c(c4)OCO5)CC[C@H]32)c1 | inactive | inactive | inactive |
| C[C@H](CO)N1C[C@H](C)[C@H](CN(C)Cc2ccc(C(=O)O)cc2)Oc2c(NC(=O)Nc3cccc4ccccc34)cccc2C1=O | inactive | inactive | inactive |
| CC(C)CC#Cc1cnc2c(c1)C(=O)N([C@@H](C)CO)C[C@H](C)[C@@H](CN(C)C(=O)CCN1CCCCC1)O2 | inactive | inactive | inactive |
| C[C@@H]1CN([C@@H](C)CO)C(=O)CCCn2nncc2CO[C@@H]1CN(C)C(=O)C1CC1 | inactive | inactive | inactive |
| COc1cccc(C#Cc2ccc3c(c2)O[C@@H](CN(C)C(=O)c2ccccn2)[C@@H](C)CN([C@H](C)CO)S3(=O)=O)c1 | inactive | inactive | inactive |
| Cc1cc(-c2ccccc2)nc(-c2ccccc2)c1C | inactive | inactive | inactive |
| C/C1=C2/[N]([Co+][OH])[C@H]([C@H](CC(N)=O)[C@@]2(C)CCC(=O)NC[C@@H](C)OP(=O)(O)O[C@H]2[C@@H](O)[C@@H](n3cnc4cc(C)c(C)cc43)O[C@@H]2CO)[C@]2(C)N=C(/C(C)=C3N=C(/C=C4N=C1[C@@H](CCC(N)=O)C/4(C)C)[C@@H](CCC(N)=O)[C@]\3(C)CC(N)=O)[C@@H](CCC(N)=O)[C@]2(C)CC(N)=O | active | active | inactive |
| C[C@@H]1CCCCO[C@@H](CN(C)S(=O)(=O)c2cccs2)[C@@H](C)CN([C@H](C)CO)C(=O)c2cc(NC(=O)Nc3ccc(F)cc3)ccc2O1 | inactive | inactive | inactive |
| COc1ccc(S(=O)(=O)N(C)C[C@H]2OCCCC[C@@H](C)Oc3ccc(NC(=O)Nc4ccc(F)cc4)cc3C(=O)N([C@@H](C)CO)C[C@H]2C)cc1 | inactive | inactive | inactive |
| C[C@@H]1CN([C@@H](C)CO)C(=O)c2cc(NC(=O)Nc3cccc4ccccc34)ccc2O[C@@H]1CN(C)Cc1ccc2c(c1)OCO2 | inactive | active | inactive |
| Cc1noc(C)c1NC(=O)Nc1ccc2c(c1)C(=O)N([C@H](C)CO)C[C@H](C)[C@H](CN(C)Cc1ccc(-c3ccccc3)cc1)O2 | inactive | inactive | inactive |
| O=C(N1CCN(CCO)CC1)C(F)(F)F | inactive | inactive | inactive |
| CC(C)NC(=O)N(C)C[C@@H]1Oc2c(NS(=O)(=O)c3ccc(F)cc3)cccc2C(=O)N([C@@H](C)CO)C[C@@H]1C | inactive | inactive | inactive |
| C/C=C/COc1nc2c(c(=O)n(C)c(=O)n2C)n1C | inactive | inactive | inactive |
| C[C@H](CO)N1C[C@H](C)[C@@H](CN(C)C(=O)Nc2ccccc2)Oc2ccc(NS(C)(=O)=O)cc2CC1=O | inactive | inactive | inactive |
